{"source": "patent US20260034092A1", "about": "“BIOCIDAL COMPOSITION” (priority 2022, published 2026)", "test_system": "Poliovirus ATCC VR-166, Adenovirus ATCC VR-1516, Norovirus ATCC TIB-71", "format": "cell-based", "conditions": "after 10 days of treatment on the sterile plastic container; calculated on the total of all study microorganisms", "data": [{"smiles": "CC(O)C(=O)O", "note": "(stereo not shown) [Treatment A, lactic acid]", "values": [{"measurement": "efficiency percentage, Virucide activity", "value": 37.8, "unit": "%"}]}]}
